# In paper PMC4336329 (PLoS ONE, 2015):
# The campaign covered roughly 310,000 compounds. About 2,200 (0.71%) showed an effect of 50% or more. Effects have a minus sign here. Some of the results follow.
# Biological target: human ether-à-go-go-related gene (hERG) potassium channel (human, UniProt Q12809)
# Experiment: primary screen, population patch clamp on CHO cells stably expressing hERG
# Sequence of human ether-à-go-go-related gene (hERG) potassium channel (Q12809 whole entry, looked up): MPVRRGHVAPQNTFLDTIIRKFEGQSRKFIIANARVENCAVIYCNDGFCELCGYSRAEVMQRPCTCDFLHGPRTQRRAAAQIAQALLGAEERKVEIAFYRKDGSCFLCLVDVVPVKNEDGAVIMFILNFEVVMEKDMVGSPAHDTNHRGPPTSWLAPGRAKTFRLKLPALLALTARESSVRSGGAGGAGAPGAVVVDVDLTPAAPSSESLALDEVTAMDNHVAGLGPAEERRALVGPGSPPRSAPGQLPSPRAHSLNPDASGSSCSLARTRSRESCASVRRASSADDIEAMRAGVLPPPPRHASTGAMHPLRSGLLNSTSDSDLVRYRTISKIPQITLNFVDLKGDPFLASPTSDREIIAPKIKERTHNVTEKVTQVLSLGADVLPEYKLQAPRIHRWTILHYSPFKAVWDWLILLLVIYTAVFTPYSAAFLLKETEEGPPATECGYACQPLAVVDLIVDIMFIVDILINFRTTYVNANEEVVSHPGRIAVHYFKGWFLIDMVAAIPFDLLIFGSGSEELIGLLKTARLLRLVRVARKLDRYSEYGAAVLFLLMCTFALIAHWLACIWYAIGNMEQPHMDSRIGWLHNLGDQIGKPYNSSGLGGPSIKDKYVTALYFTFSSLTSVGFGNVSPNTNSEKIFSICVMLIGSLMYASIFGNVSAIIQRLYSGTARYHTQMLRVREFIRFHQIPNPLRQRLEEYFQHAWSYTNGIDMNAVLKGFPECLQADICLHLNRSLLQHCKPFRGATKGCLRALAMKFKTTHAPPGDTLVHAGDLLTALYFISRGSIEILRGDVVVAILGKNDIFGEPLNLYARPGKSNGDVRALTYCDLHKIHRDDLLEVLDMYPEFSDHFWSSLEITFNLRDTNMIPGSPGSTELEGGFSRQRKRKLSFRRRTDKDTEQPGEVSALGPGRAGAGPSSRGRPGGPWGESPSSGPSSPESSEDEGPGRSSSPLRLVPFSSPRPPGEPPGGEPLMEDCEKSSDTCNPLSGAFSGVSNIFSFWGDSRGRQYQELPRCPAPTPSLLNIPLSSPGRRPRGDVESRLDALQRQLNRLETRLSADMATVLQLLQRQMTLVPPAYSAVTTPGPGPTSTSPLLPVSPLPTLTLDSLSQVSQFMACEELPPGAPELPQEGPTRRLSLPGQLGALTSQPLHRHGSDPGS
row,SMILES,"hERG current change (%, negative = inhibition) at 1uM [%]"
1,CC1=C(C(=O)N2CCN(C(=O)c3ccco3)CC2)C2(CCC(C)CC2)OC1=O (stereo not drawn),-20
2,O=C(c1cccc(F)c1F)N1CCCc2ccccc21,17.1
3,O=C(Oc1cccc2cccnc12)c1ccco1,-5.44
4,COC(=O)c1c(NC(=O)Cn2nc(C(F)F)cc2C(F)F)sc(C)c1C,11.6
5,COc1ccc(Nc2cc3n(c(=O)n2)CCc2cc(OC)c(OC)cc2-3)c(C)c1,12.6
6,Cn1c(C(=O)NCCN2CCCCCC2)cc2c(=O)n(C)c3ccccc3c21,-2.61
7,CCCCn1c(SCC(=O)N(C)C)nnc1-c1ccncc1,3.11
8,Cc1cc2c(cc1C)NC(c1cccnc1)C1=C(CC(C)(C)CC1=O)N2 (stereo not drawn),15.8
9,CC(C)N(Cc1nc(-c2ccccc2)no1)C(=O)CSc1ccccc1,6.18
10,CC(C)CN(C(=O)c1cccc(Cl)c1)c1c(N)n(CC(C)C)c(=O)[nH]c1=O,14.3
11,CC(C)CCNC(=O)NC(=O)COC(=O)/C=C/c1cc(Br)ccc1F,18.7
12,CCn1c(CN2CCOCC2)nnc1SCC(=O)Nc1cccc(C)c1,5.32
13,CC(C)C[C@@]12C(=O)N(c3cccc(Br)c3)C(=O)N1[C@H](c1ccc(F)cc1)[C@@H]1C(=O)N(C3CCCCC3)C(=O)[C@@H]12,16
14,Cc1occc1C(=O)N/N=C/c1ccccn1,8
15,COC(=O)c1ccc(/C=N\n2c(C)nnc2C)cc1,11.1
16,NC(=O)c1nsc(C(=O)N(CC(=O)NCc2ccc(F)cc2)Cc2ccco2)c1N,5.69
17,COc1ccc(NC(=O)C2CCCCN2N)cc1OCC(C)C.O=C(O)C(=O)O (stereo not drawn),4.05
18,COc1ccc(S(=O)(=O)N(CC(=O)NCCC(C)C)c2ccccc2)cc1OC,6.97
19,CCc1cc(C(=O)N2CCCC(C(=O)c3ccc(Cl)cc3)C2)no1 (stereo not drawn),10.4
20,O=C(N/N=C(/c1ccccc1)c1ccncc1)c1ccc2c(c1)OCO2,2.11
21,O=S(=O)(Nc1nccs1)c1ccc(F)cc1,15.5
22,CCn1c(CNC(=O)c2ccccc2OC)nnc1SCC(=O)c1ccc(F)cc1,9.55
23,CCCOc1ccc(N2C(=O)CC(NNC(=O)c3ccc(COc4ccccc4)o3)C2=O)cc1 (stereo not drawn),13.8
24,O=C(Nc1ccc(Br)cc1)c1cc(-c2ccc3c(c2)OCO3)on1,22.4
